This passage reports survival results from PubChem BioAssay AID463173 (ICCB-Longwood Screening Facility, Harvard Medical School, 2010).

Among all 52,000 compounds or so, about 4,300 (8.3%) were called active. Rule as the data show it: active = survival mostly below about 52% (no sharp cut-off); inactive = mostly above about 56%. Some of the results follow.

The assay relates to DeltatarO mutant. The experiment in a line: growth inhibition of S. aureus wild type versus tarO mutant, primary screen, teichoic acid synthesis inhibitors, RN4220, OD600 (AID 463173). To be noted: OD600, 18 h, hits give low values, screened at 18.75 µg/mL (by protocol).
On to `Cc1ccc(CCNS(=O)(=O)c2ccc3c(c2)C(C(C)C)C(=O)N3)cc1` (stereo unspecified), for which the survival is inactive: 116%.
As for `COc1cc(NC(=O)CN2C(=O)CCc3cc(Br)ccc32)cc(OC)c1OC`, the figure is inactive: 64%; as for `CC(=O)N1c2ccccc2C(=O)C1N1CCN(c2cccc(Cl)c2)CC1` (stereo unspecified), inactive: 90%; as for `COc1cc(OC)c(C2CC(=O)Nc3ccc4ccccc4c32)cc1OC` (stereo unspecified), inactive: 122%.
Under `CC(NC(=O)c1cc2c(=O)n3ccccc3nc2n(C(C)C)c1=N)c1ccccc1` (stereo unspecified) stands inactive: 67%; under `COC(=O)c1ccccc1NC(=O)c1nc(-c2ccc(C)cc2)n2c1CCCCC2`, inactive: 63%.
On to `O=C(CN1C(=O)CSC1=O)NCc1ccccc1`, for which the survival was inactive: 95%.
For the molecule `Cc1cc(F)ccc1NC(=O)CCS(=O)(=O)c1cc2c(cc1C)NC(=O)CO2`, the survival is inactive: 95%.
As for `COc1ccccc1Nc1ncc2c(n1)CCN(Cc1ccc(C)s1)C2`, the figure is inactive: 72%; as for `CCOC(=O)N1CCC(NC(=O)c2c(C)nn(-c3cccc(C)c3)c2-n2cccc2)CC1`, inactive: 89%; as for `CCOC(=O)c1ccc(NC(=O)CSc2nc3c(c(=O)[nH]2)CN(Cc2ccccc2)CC3)cc1`, inactive: 64%.
As for `Cc1ccc2c(=O)c(C(=O)c3cccc(Cl)c3)cn(CC(=O)NC3CCCCC3)c2n1`, the figure is inactive: 104%.
Under `CC(C)(C)C(=O)NCCc1nc2ccccc2n1CCCCOc1ccccc1` stands active: 41%.
For `Cc1ccc(N(CC(=O)N2CCN(c3ccc(F)cc3)CC2)S(=O)(=O)c2c(C)noc2C)cc1`, the survival was inactive: 83%.
As for `CCOc1ccc(C2c3c(-c4cc(C)ccc4O)n[nH]c3C(=O)N2Cc2cccnc2)cc1OCC` (stereo unspecified), the figure is inactive: 72%.
As for `COc1ccccc1NC(=O)CC(C)n1nc(C)cc1C` (stereo unspecified), the survival was inactive: 67%.
Take `Nc1ccccc1-c1nc2ccccc2s1`: the survival was inactive: 78%.
Under `CCCN(Cc1cc2cccc(C)c2[nH]c1=O)C(=O)c1cccc(Cl)c1` stands inactive: 75%.
Under `Cc1ccc(CSc2cn(CC(=O)N3CCCCCC3)c3ccccc23)cc1` stands inactive: 84%; under `COc1cccc(CNC(=O)Cn2ncc3c(=O)oc4ccccc4c32)c1`, inactive: 126%.
Under `O=S(=O)(NCc1ccc(F)cc1)c1ccc(N2CCCCS2(=O)=O)cc1` stands inactive: 99%.
Consider `O=C(CC1CCCCC1)NCC1CCCO1` (stereo unspecified), for which the survival is inactive: 103%.
`CCOc1ccccc1CNCCCSc1nnnn1C`: the survival is inactive: 69%.
In the case of `CCn1cc(/C=C(\NC(=O)c2cc(OC)c(OC)c(OC)c2)C(=O)NCCCn2ccnc2)c2ccccc21`, the survival is inactive: 109%.
Under `Cc1cc(NC(=O)Cc2ccccc2)cc(-c2nc3ccccc3o2)c1O` stands inactive: 79%.
Under `CCOC(=O)c1cc2c(=O)n3ccccc3nc2n(C(C)C)c1=NC(=O)C(C)(C)Oc1ccc(Cl)cc1` stands inactive: 57%; under `Cc1nc(-c2ccc(F)cc2)sc1CCNC(=O)Cc1ccc(F)cc1`, inactive: 81%; under `Cc1c(C(=O)NCCN(C)C)oc2c1-c1nn(Cc3cccc(Cl)c3)cc1CC2`, inactive: 77%.
`CC(C)CC(=O)Nc1cccc(-c2nnc(-c3cccc(NC(=O)CC(C)C)c3)o2)c1`: the survival is inactive: 71%.
Under `CN(C)c1ccc(Nc2ncnc3c2c(-c2ccccc2)cn3-c2cccc(Cl)c2)cc1` stands inactive: 107%; under `Cc1cccc(C)c1NC(=O)Cn1nnc(S(=O)(=O)c2ccccc2)c1N`, inactive: 91%.
With `O=C1CN(C(=O)c2ccc(S(=O)(=O)N3CCCC3)cc2)C(c2ccccc2)c2cc(F)ccc2N1` (stereo unspecified), the survival was inactive: 73%.
On to `CC1CCCC(C)N1C(=O)CSc1nc2ccccc2n1CC(=O)NC1CCCC1` (stereo unspecified), for which the survival was inactive: 82%.
Under `Cn1nnc2cc(C(=O)NCc3ccco3)ccc21` stands inactive: 79%.
Under `N#Cc1c(-c2ccccc2)cc(-c2ccccc2)nc1SCC(O)CS(=O)(=O)Cc1ccc(Cl)cc1` (stereo unspecified) stands inactive: 67%; under `O=C(CSc1nc(=O)n(Cc2ccccn2)c2c1CCC2)Nc1ccccc1`, inactive: 67%; under `Cc1cccc(CCNCc2cc3cc4c(cc3[nH]c2=O)OCO4)c1`, inactive: 85%.
As to `CSc1ccccc1NC(=O)CCS(=O)(=O)c1nc(-c2ccc3c(c2)OCO3)cc(C(F)(F)F)n1`, the survival was inactive: 132%.
Turning to `CN(C)S(=O)(=O)c1ccc(S(=O)(=O)N2CCC(c3nc4ccccc4s3)CC2)cc1`, the survival was inactive: 103%.
Under `COc1cc(CNC(=O)c2cnc(SC)nc2-c2ccccc2)cc(OC)c1OC` stands inactive: 58%.
With `Cc1ccc(S(=O)(=O)C(CNS(=O)(=O)c2cc(F)ccc2F)c2cccs2)cc1` (stereo unspecified), the survival was inactive: 64%.
Turning to `Cc1cccc(S(=O)(=O)c2cn(Cc3ccccc3)c3cc(N4CCCCC4)c(F)cc3c2=O)c1`, the survival is inactive: 82%.
`CC(=O)Nc1ccccc1-c1n[nH]c(=S)[nH]c1=O`: the survival was inactive: 95%.
As for `COC(=O)c1ccccc1NS(=O)(=O)c1cc2c(cc1C)N(C)CCO2`, the figure is inactive: 87%.
As to `COc1ccc(CCC(=O)NC2CC(=O)N(c3ccc(F)cc3)C2)cc1` (stereo unspecified), the survival is inactive: 74%.
With `CCN(CC)C(=O)c1c(-c2ccccc2)c(-c2ccccc2)nn(CC)c1=O`, the survival is inactive: 108%.
On to `COc1ccccc1N1CCN(C(=O)CN2C(=O)COc3ccc(S(=O)(=O)N4CCOCC4)cc32)CC1`, for which the survival is inactive: 86%.
As for `O=C1C(CO)NC(=S)N1c1ccccc1` (stereo unspecified), the figure is inactive: 125%.
`CCC1CCCCN1c1ncnc2c1nnn2Cc1ccccc1Cl` (stereo unspecified): the survival was inactive: 99%.
As for `CCN(Cc1nc(-c2ccc(OC)c(OC)c2)no1)S(=O)(=O)c1ccc(OC)cc1`, the figure is inactive: 47%; as for `CC1CN(C(=O)N(C)C)CCN1C(=O)N(C)C` (stereo unspecified), inactive: 99%.
As for `CC1Cc2ccccc2N1C(=O)c1cnsn1` (stereo unspecified), the figure is inactive: 97%.
As for `COc1ccc(NC(=O)C(=O)NCCc2csc3nc(-c4ccccc4F)nn23)cc1OC`, the figure is inactive: 67%; as for `CC(=O)c1ccc(NS(=O)(=O)c2ccc3c(c2)NC(=O)CCS3)cc1`, inactive: 84%.
`O=C1C2C3C=CC(C3)C2C(=O)N1CCN1C(=O)C2C3C=CC(C3)C2C1=O` (stereo unspecified): the survival was inactive: 101%.
As for `O=C(NC12CCC(O)C(SC1)/C2=N/O)c1ccccc1` (stereo unspecified), the survival is inactive: 98%.
As for `CCCNC(=O)c1ccc2c(c1)nc1n2CCCCC1`, the survival is inactive: 94%.
Under `Cc1noc(C)c1S(=O)(=O)N(CC(=O)Nc1ccc(F)cc1F)c1ccc(C(C)C)cc1` stands inactive: 67%; under `Cc1ccc(NC(=O)C2CCN(S(=O)(=O)c3cccc4nsnc34)CC2)cc1F`, inactive: 84%.
`COc1ccc(Cn2ccc3nc(C)c(C(=O)Nc4cccc(SC)c4)cc3c2=O)cc1`: the survival was inactive: 95%.
On to `COc1cccc(CNC(=O)Cn2ncn3nc(-c4cccs4)cc3c2=O)c1`, for which the survival is inactive: 60%.
Under `CCOC(=O)Cc1csc(NC(=O)CSc2nc3c(C)c(C)ccc3cc2C#N)n1` stands inactive: 78%; under `CN1CCN(c2ncnc3c2cnn3-c2cccc(Cl)c2)CC1`, inactive: 101%; under `Cc1cccc(N2CCN(C3=C(c4ccccc4)C(=O)c4ccccc43)CC2)c1C`, inactive: 65%.
As for `COc1cc(OC)c(OC)cc1/C=C/c1nc2cc3ccccc3cc2c(=O)n1-c1ccccc1Br`, the survival is inactive: 81%.
Regarding `Cc1ccc(CNC(=O)c2cc(=O)c3cc(C)ccc3o2)cc1`, the survival is active: 42%.
Regarding `COc1cc2c(c(OC)c1)C(c1cccc(F)c1F)CC(=O)N2` (stereo unspecified), the survival was inactive: 110%.
As for `CCn1cc2nc(SCc3ccccc3Cl)n(Cc3ccc(OC)cc3)c(=O)c2n1`, the survival was inactive: 87%.
With `COc1cccc(CNC(=O)c2ccc(-c3nc(CSc4ccccc4)c(C)o3)cc2)c1`, the survival is inactive: 83%.
As for `CCCN(CCC)CCCNC(=O)c1cc2c(=O)n(C)c3ccccc3c2s1`, the figure is inactive: 141%; as for `CC(=O)Nc1ccc(S(=O)(=O)n2cnc3cc(C)c(C)cc32)cc1`, inactive: 74%.
On to `CC(=O)Nc1ccccc1-c1nc2ccccc2n(C(C)C(=O)Nc2ccccc2C(F)(F)F)c1=O` (stereo unspecified), for which the survival was inactive: 98%.
As for `COc1ccc(-c2c(C)c3ccc(O)c(CN4CCC(C)CC4)c3oc2=O)cc1OC`, the figure is inactive: 77%; as for `COc1ccc(C(Nc2ccccn2)c2ccc3ccc(C)nc3c2O)cc1C` (stereo unspecified), active: 40%; as for `COC(=O)c1c(NC(=O)c2cc(=O)c3ccc(C)c(C)c3o2)sc2c1CCCC2`, inactive: 84%.
For the molecule `COc1ccc(CCNC(=O)CN(c2ccccc2OC)S(=O)(=O)c2ccc(C)cc2)cc1`, the survival is inactive: 71%.
Under `O=C(Nc1sc2c(c1C(=O)Nc1ccccc1Cl)CCCC2)c1ccccc1F` stands active: 48%.
Regarding `COC(=O)c1ccc(NC(=O)CSc2nc3ccc(OC)cc3[nH]2)cc1`, the survival is inactive: 184%.
As for `Cc1ccc(NC(=O)CSc2nc(C)c(Cc3ccccc3)c(=O)[nH]2)cc1`, the figure is inactive: 48%; as for `COCCCNC(=O)Cn1c(=O)n(Cc2ccc(C(=O)NCc3ccc(C)cc3)cc2)c(=O)c2ccccc21`, inactive: 96%.
In the case of `COc1ccc(CCNC(=O)Cc2c(C)c3c(cc(C)c4c(C)coc43)oc2=O)cc1`, the survival was inactive: 89%.
`COc1ccc(N2CCN(C(=O)c3cnc(N4CCCC4)nc3C)CC2)cc1`: the survival is inactive: 101%.
As for `CCC(Sc1nc2ccccc2c2nc(CCc3c(C)n[nH]c3C)nn12)C(=O)Nc1ccc(F)cc1` (stereo unspecified), the figure is inactive: 80%; as for `COc1ccccc1CNS(=O)(=O)c1ccc2[nH]c3c(c2c1)CCCCC3`, inactive: 86%.
Take `O=C(NN1CC(=O)N(C2CCCC2)C1=O)C(c1ccccc1)c1ccccc1`: the survival was inactive: 83%.
As for `CC1=C(c2ccc(C)cc2)S(=O)(=O)N(Cc2ccc(C(=O)NCc3cccc(C)c3)cc2)C1=O`, the survival is inactive: 86%.
In the case of `CC(Oc1ccccc1)c1nnc(N)s1` (stereo unspecified), the survival is inactive: 84%.
Under `Cc1c(Cl)cccc1NC(=O)N1CCC(CN2CCCC2)CC1` stands inactive: 83%; under `O=C(Cc1ccc(F)cc1)NC1CC(=O)N(c2ccc3c(c2)OCCO3)C1` (stereo unspecified), inactive: 77%; under `COc1cccc(-c2cn3c(n2)sc2cc(C(=O)NC4CCCCCC4)ccc23)c1`, inactive: 60%.
Under `CC1Cc2ccccc2N1C(=O)C1CCN(S(=O)(=O)c2ccc(-n3cnnn3)cc2)CC1` (stereo unspecified) stands inactive: 93%.
